Where two headings read alike, the source gives them in different places.
How the values were obtained:
[1] = target: T1, IL-7Rα/IL-2Rγ on human T cells (human, UniProt P16871 21-459; P31785 23-369); test: cell-based or functional assay
T1 sequence (looked up) 1: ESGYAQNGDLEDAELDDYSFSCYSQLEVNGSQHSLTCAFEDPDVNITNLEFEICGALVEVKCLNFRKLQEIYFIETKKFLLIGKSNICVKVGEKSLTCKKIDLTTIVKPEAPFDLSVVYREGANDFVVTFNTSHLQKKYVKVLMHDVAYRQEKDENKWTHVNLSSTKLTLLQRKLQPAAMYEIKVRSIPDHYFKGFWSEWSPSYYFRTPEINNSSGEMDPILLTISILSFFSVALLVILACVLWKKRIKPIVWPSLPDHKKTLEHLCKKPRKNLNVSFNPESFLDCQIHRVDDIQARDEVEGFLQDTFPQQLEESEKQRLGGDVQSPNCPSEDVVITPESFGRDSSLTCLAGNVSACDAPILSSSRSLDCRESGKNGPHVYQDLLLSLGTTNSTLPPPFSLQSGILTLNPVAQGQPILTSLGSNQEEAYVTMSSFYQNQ
T1 sequence (looked up) 2: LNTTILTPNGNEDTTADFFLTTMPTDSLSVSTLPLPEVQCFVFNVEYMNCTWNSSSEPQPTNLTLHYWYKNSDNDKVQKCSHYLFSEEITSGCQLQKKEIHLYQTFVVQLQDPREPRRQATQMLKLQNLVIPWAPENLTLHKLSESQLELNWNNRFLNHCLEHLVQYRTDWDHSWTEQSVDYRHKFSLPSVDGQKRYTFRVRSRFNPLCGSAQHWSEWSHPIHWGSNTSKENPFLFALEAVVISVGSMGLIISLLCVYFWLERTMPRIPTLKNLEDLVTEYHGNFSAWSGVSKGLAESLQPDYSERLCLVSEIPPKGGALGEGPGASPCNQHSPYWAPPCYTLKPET

[2] = target: T2, Human IL7Ra-IL2Rγ-Fc heterodimer (human, biotin on the avi tag); test: SPR (Example 2.4), captured via anti-P329G, receptor-Fc 2.34-300 nM, 1:1 fit
T2 construct: Extracellular domains of IL-7Ralpha and IL-2Rgamma fused to Fc knob and Fc hole; also called hu IL7Ra-IL2Rγ-Fc avi biotin; human IL7Ra-IL2Rg-Fc biotin
Experimental: SPR experiments were performed on a Biacore 8 K with HBS-EP + 1 mg/ml BSA as running buffer. Anti-P329G Fc specific antibody (Roche internal) was directly immobilized by amine coupling on a C1 chip (Cytiva). The PD1-IL7 constructs were captured for 140 s at 5 nM. […] The dissociation phase was monitored for 800 s and triggered by switching from the sample solution to running buffer. The chip surface was regenerated after every cycle using two injections of 10 mM glycine pH 2 for 60 sec. Bulk refractive index differences were corrected for by subtracting the response obtained on the reference flow cell (containing immobilized anti P329G Fc specific IgG only). The affinity constants were derived from the kinetic rate constants by fitting to a 1:1 Langmuir binding using the Biacore evaluation software (Cytiva).
Four IL7 single variants, two IL7 double variants and IL7 wild-type were compared to four reference molecules with modified IL7 for binding to human IL7 receptor (Table 23). The affinity of the IL7 variants to the IL7 receptor was determined using the recombinant heterodimer of the extracellular domains of the IL7 receptor alpha chain and the common IL2 receptor gamma chain.

[3] = target: T1, IL-7Rα/IL-2Rγ on human T cells; test: cell-based or functional assay; remark: listed apart in the source

B1: Reference Molecule 8 (other)
light: DIVMTQSPDSLAVSLGERATINCKASESVDTSDNSFIHWYQQKPGQSPKLLIYRSSTLESGVPDRFSGSGSGTDFTLTISSLQAEDVAVYYCQQNYDVPWTFGQGTKVEIKRTVAAPSVFIFPPSDEQLKSGTASVVCLLNNFYPREAKVQWKVDNALQSGNSQESVTEQDSKDSTYSLSSTLTLSKADYEKHKVYACEVTHQGLSSPVTKSFNRGEC
heavy 1: EVQLLESGGGLVQPGGSLRLSCAASGFSFSSYTMSWVRQAPGKGLEWVATISGGGRDIYYPDSVKGRFTISRDNSKNTLYLQMNSLRAEDTAVYYCVLLTGRVYFALDSWGQGTLVTVSSASTKGPSVFPLAPSSKSTSGGTAALGCLVKDYFPEPVTVSWNSGALTSGVHTFPAVLQSSGLYSLSSVVTVPSSSLGTQTYICNVNHKPSNTKVDKKVEPKSCDKTHTCPPCPAPEAAGGPSVFLFPPKPKDTLMISRTPEVTCVVVDVSHEDPEVKFNWYVDGVEVHNAKTKPREEQYNSTYRVVSVLTVLHQDWLNGKEYKCKVSNKALGAPIEKTISKAKGQPREPQVCTLPPSRDELTKNQVSLSCAVKGFYPSDIAVEWESNGQPENNYKTTPPVLDSDGSFFLVSKLTVDKSRWQQGNVFSCSVMHEALHNHYTQKSLSLSPGK
heavy 2: EVQLLESGGGLVQPGGSLRLSCAASGFSFSSYTMSWVRQAPGKGLEWVATISGGGRDIYYPDSVKGRFTISRDNSKNTLYLQMNSLRAEDTAVYYCVLLTGRVYFALDSWGQGTLVTVSSASTKGPSVFPLAPSSKSTSGGTAALGCLVKDYFPEPVTVSWNSGALTSGVHTFPAVLQSSGLYSLSSVVTVPSSSLGTQTYICNVNHKPSNTKVDKKV[human IgG1 Fc with changes left out]GGGGSGGGGSGGGGSDCDIEGKDGKQYESVLMVSIDQLLDSMKEIGSNCLNNEFNFFKRHICDANKEGMFLFRAARKLRQFLKMNSTGDFDLHLLKVSEGTTILLNCTGQVKGRKPAALGEAQPTKSLEENKSLKEQKKLNDLCFLKRLLQEIKTCHNKILMGTKEH
notes: Format as m1; IL-7 with W142H; also called P1AF9650-004
STAT5-P Area (PD1+) [1]: 96.1
STAT5-P Area (PD1 blocked) [1]: 62.1
Kd [2]: 1.46 nM
koff [2]: 0.000441 s⁻¹
kon [2]: 303000 M⁻¹ s⁻¹

B2: Reference Molecule 1 (other)
light: DVVMTQSPLSLPVTLGQPASISCRSSQSLVHANTNTYLEWYQQRPGQSPRLLIYKVSNRFSGVPDRFSGSGSGTDFTLKISRVEAEDVGVYYCFQGTHVPNTFGQGTKLEIKRTVAAPSVFIFPPSDEQLKSGTASVVCLLNNFYPREAKVQWKVDNALQSGNSQESVTEQDSKDSTYSLSSTLTLSKADYEKHKVYACEVTHQGLSSPVTKSFNRGEC
heavy: QIQLVQSGSELKKPGASVKVSCKASGYTFTHYAMNWVRQAPGQGLEWMGWINTNTGEPTYAQGFTGRFVFSLDTSVSTAYLQISSLKAEDTAVYYCAREREPGMDNWGQGTLVTVSS[human IgG1 constant region with changes left out]GGGGSGGGGSGGGGSDCDIEGKDGKQYESVLMVSIDQLLDSMKEIGSNCLNNEFNFFKRHICDANKEGMFLFRAARKLRQFLKMNSTGEFDLHLLKVSEGTTILLNCTGQVKGRKPAALGEAQPTKSLEENKSLKEQKKLNDLCFLKRLLQEIKTCWNKILMGTKEH
STAT5-P Area (PD1+) [3]: 104
STAT5-P Area (PD1 blocked) [3]: 81.2

B3: Reference Molecule 3 (other)
light: B2 light
heavy: QIQLVQSGSELKKPGASVKVSCKASGYTFTHYAMNWVRQAPGQGLEWMGWINTNTGEPTYAQGFTGRFVFSLDTSVSTAYLQISSLKAEDTAVYYCAREREPGMDNWGQGTLVTVSS[human IgG1 constant region with changes left out]GGGGSGGGGSGGGGSDCDIEGKDGKQYESVLMVSIDQLLDSMKEIGSNSLNNEFNFFKRHISDANKEGMFLFRAARKLRQFLKMNSTGDFDLHLLKVSEGTTILLNSTGQVKGRKPAALGEAQPTKSLEENKSLKEQKKLNDLSFLKRLLQEIKTCWNKILMGTKEH
STAT5-P Area (PD1+) [3]: 0.691
STAT5-P Area (PD1 blocked) [3]: 0.751

B4: Reference Molecule 4 (other)
light: B2 light
heavy: QIQLVQSGSELKKPGASVKVSCKASGYTFTHYAMNWVRQAPGQGLEWMGWINTNTGEPTYAQGFTGRFVFSLDTSVSTAYLQISSLKAEDTAVYYCAREREPGMDNWGQGTLVTVSS[human IgG1 constant region with changes left out]GGGGSGGGGSGGGGSDCDIEGKDGKQYESVLMVSIDQLLDSMKEIGSNCLNNEFNFFKRHICDANKEGMFLFRAARKLRQFLKMNSTGDFDLHLLKVSEGTTILLNCTGQVKGRKPAALGEAQPTKSLEENKSLKEQKKLNDLCFLKRLLQEIKTCHNKILMGTKEH
STAT5-P Area (PD1+) [3]: 60.8
STAT5-P Area (PD1 blocked) [3]: 44.1
